From PubChem BioAssay AID1347417 (National Center for Advancing Translational Sciences (NCATS), 2020)
The whole screen tested about 120,000 compounds, of which about 5,300 (4.4%) were called active. The shares of active, inactive and inconclusive entries below differ from those in the screen. Calls follow the shape of the dose curve; as a rule, active = well fitted inhibition curve with a large enough effect; inconclusive = small, poorly fitted or top-dose-only effect; inactive = no such curve, though single readings can be large or run the other way. Potencies of inconclusive entries are doubtful fits and often do not repeat.

Assay: qHTS Primary assay for Inhibitors of Plasmodium falciparum Dd2 growth in vitro; also: nearly all actives have a fitted effect of over 65% in size;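 as to activity, negative = inhibition: plate controls were DMSO vehicle for no effect and reference drug for full effect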
Conditions: P. falciparum Dd2 growth, SYBR Green, 72 h; activity, negative = inhibition: at 28.9 µM (top of the series) unless noted; series mostly up to 28.9 µM
In short: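 Infected erythrocytes (Dd2, 0.3% parasitemia, 2.5% hematocrit final) are added to compound in RPMI-1640/Albumax II medium, grown 72 h at 37C in low oxygen, then lysed with saponin/Triton-X containing SYBR Green and read by fluorescence.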
Potency is read from the fitted curve at half-maximal effect; tags tell the direction and shape of the fitted curve.

SMILES	activity, negative = inhibition	Potency
Cc1onc(-c2cnn(C)c2NCCc2ccccc2)c1C(=O)N1CCCC(C(N)=O)C1 (stereo not drawn)	inactive: -16.8% [at 44.1 µM]	
COc1ccc(-c2cc(N3CCC(NC(=O)c4ccccc4F)CC3)n[nH]2)cc1		inconclusive: 1.58 µM [inhibitor, partial curve, poor fit]
CCOc1ccc2nc(N3CCCC(C(=O)NCCc4ccc(OCC)c(OCC)c4)C3)sc2c1 (stereo not drawn)		inconclusive: 11.2 µM [inhibitor, partial curve]
Cc1cccc(C)c1Nc1c(-c2ccccn2)nc2c(C)cccn12		inconclusive: 7.94 µM [inhibitor, partial curve]
O=C(c1ccc(Cl)cc1)N1CC2(CCNC2)OCc2ccccc21 (stereo not drawn)		inconclusive: 8.91 µM [inhibitor, single point]
COc1ccc2[nH]c(C[C@@H]3C[C@@H](C(C)C)[C@H](CNC(C)=O)C=C3C)nc2n1		inconclusive: 11.2 µM [inhibitor, partial curve]
COCC1CN(C(C)=O)CC12CCN(C(=O)COc1ccc(Cl)cc1)CC2 (stereo not drawn)		inconclusive: 10 µM [inhibitor, partial curve, poor fit]
CCOCCCNC(=O)NC1CCN(c2ccc(OC)cc2)C1=O (stereo not drawn)	inactive: 6.79%	
CC(C)c1nc2c(c(-c3ccc(Cl)cc3)n1)CCN(Cc1ccsc1)CC2		inconclusive: 10 µM [inhibitor, single point]
CCOc1ccc(C(=O)N2CCN(c3nnc4ccc(C(F)(F)F)cn34)CC2)cc1		inconclusive: 1.41 µM [inhibitor, partial curve, poor fit]
O=C(NCc1ccc(Cl)cc1)c1cc2n(n1)CC(c1ccc3c(c1)OCO3)OC2 (stereo not drawn)		inconclusive: 6.31 µM [inhibitor, single point]
Cc1cc(OCC(=O)Nc2cc(-c3nc4ncccc4o3)ccc2C)ccc1Cl		active: 10 µM
O=C(c1nnn2cc(-c3ccc(F)cc3)[nH]c(=O)c12)N1CCOCC1	inactive: 24.2%	
Cc1ccc2c(CNCc3ccc(C)o3)c(C(=O)O)n(Cc3ccccc3C)c2c1		inconclusive: 17.8 µM [inhibitor, single point]
O=C(c1n[nH]c2ccccc12)N1CCC(OCCOc2cccnc2)CC1		inconclusive: 7.94 µM [inhibitor, partial curve, poor fit]
CCc1ccc2occ(CC(=O)Nc3c(C(=O)c4ccc(C)cc4)oc4ccccc34)c2c1		inconclusive: 14.1 µM [inhibitor, single point]
COc1cccc(-c2nc(CS(=O)(=O)CC(=O)N3CCN(c4cc(C)ccc4C)CC3)c(C)o2)c1	inactive: 3.78%	
CCOC(=O)c1ccc(CN(Cc2ccc(F)cc2)S(=O)(=O)c2ccc(F)c(C(=O)Nc3c(C)cccc3C)c2)cc1		inconclusive: 17.8 µM [inhibitor, single point]
